From PubChem BioAssay AID686978 (National Center for Advancing Translational Sciences (NCATS), 2013)
Where “and” joins values, the source holds several entries; their conditions need not be identical. Equal entries are not always repeated. The campaign covered roughly 420,000 compounds. About 64,000 (15%) were called active. The shares of active, inactive and inconclusive entries below differ from those in the screen. The call rests on the fitted dose curve; in most records, active means well fitted inhibition curve with a large enough effect; inconclusive means small, poorly fitted or top-dose-only effect; inactive means flat fitted curve, though single readings scatter. No potency is given beside an inconclusive call; the fits are too rough. A structure can be active in one record and inactive in another.

Assay: qHTS for Inhibitors of human tyrosyl-DNA phosphodiesterase 1 (TDP1): qHTS in cells in absence of CPT; further: nearly all actives have a fitted effect of over 55% in size
Conditions: DT40 Tdp1-/- hTDP1 cells, no CPT, ATP luminescence, 48 h; activity change, negative = growth inhibition: at 46.2 µM (top of the series) unless noted
Summary of the method: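 DT40 Tdp1-/-;hTDP1 cells, no CPT (DMSO vehicle only), 400 cells/well; compounds pin-transferred; ≥48 hr, 37 °C; CellTiter-Glo 30 min RT dark, luminescence read.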
On the % scale 0 is the no-effect control and ±100 the full control effect; potency means the concentration at half of the fitted maximal effect; tags describe the fitted curve by direction and shape.

Structure (SMILES)	activity change, negative = growth inhibition	Potency
CN(C)S(=O)(=O)c1ccc(NC(=S)NC(=O)C2CCC2)cc1	inactive: -4.35%	–
CCC(c1nnc(SCC(=O)NCCc2ccc(OC)c(OC)c2)n1Cc1ccccc1)N(C)C (stereo not given)	inactive: -0.0283%	–
COC(=O)c1cccc(NC(=O)c2ccc3c(c2)C(=O)N(C(C)(C)C)C3=O)c1	–	inconclusive [inhibitor, single point]
CCCN1CNc2c(c(=O)[nH]c(=S)n2Cc2ccc(OC)c(OC)c2)C1	inactive: -9.76%	–
CCOC(=O)c1ccc(NC(=O)c2ccccc2C)cc1	–	inconclusive [inhibitor, single point]
CCOc1ccc(/C=N/Nc2cc(C)nc(N3CCOCC3)n2)cc1	–	inconclusive [inhibitor, single point]
CC(OC(=O)C1CC1C)C(=O)Nc1ncc(Cl)cc1Cl (stereo not given)	inactive: 2.05%	–
Oc1cc2c(c(Cl)c1O)CCNCC2c1ccccc1 (stereo not given)	–	inactive and active: 8.2 µM
Cc1ccc(S(=O)(=O)N2C[C@H]3n4c(=O)ccc(=O)n4C[C@H](OC(=O)Nc4c(C)noc4C)[C@@]3(O)C2)cc1	–	inconclusive [inhibitor, single point]
Cc1cc2ccccn2c1C(=O)c1ccccc1Br	–	inconclusive [inhibitor, single point]
Cc1ccc(NS(=O)(=O)c2cc(C(=O)Nc3cccc(N(C)S(C)(=O)=O)c3)ccc2C)c(C)c1	–	active: 18.4 µM
CN1C(C(=O)NCc2ccccc2)CC2Cn3c(nc4cc5ccccc5cc43)C21 (stereo not given)	–	inconclusive [inhibitor, single point]
CN(C)S(=O)(=O)c1ccc(NC(=O)Cc2ccc(S(=O)(=O)N3CCOCC3)s2)cc1	inactive: -34.3%	–
O=C1NC(=Nc2ccc(Cl)cc2)SC1Cc1cc(Cl)ccc1Cl (stereo not given)	–	inconclusive [inhibitor, partial curve]
O=C(CN1CCN(Cc2ccccc2)CC1)Nc1cccc(Br)c1	–	inconclusive [inhibitor, partial curve, poor fit]
COc1ccc(C(=O)Nc2nc(-c3ccc([N+](=O)[O-])cc3)c(-c3ccccc3)s2)cc1	–	active: 7.31 µM
O=C(CSc1nc(=O)n(CCN2CCOCC2)c2c1CCCC2)Nc1cccc([N+](=O)[O-])c1	–	inconclusive [inhibitor, single point]
COc1cccc(-c2nc(NCCN3CCOCC3)c3ccccc3n2)c1	–	inconclusive [inhibitor, single point]
CCCCn1c(OC(=S)N(CC)CC)cc(C)nc1=S	–	inconclusive [inhibitor, single point]
COc1ccccc1C(=O)Nc1cccc(S(=O)(=O)N2CCCC2)c1	–	inconclusive [inhibitor, single point]
O=C(Nc1ccc(F)cc1)OCCN1CCN(Cc2ccccc2)CCC1=O	–	inconclusive [inhibitor, single point]
Cc1ccc2[nH]c(=O)c(CN(CC3COCCO3)C(=O)Nc3ccccc3F)cc2c1 (stereo not given)	–	inconclusive [inhibitor, single point]
Cc1ccsc1/C=C1\Oc2cc(OCC(=O)c3ccccc3)ccc2C1=O	–	inconclusive [inhibitor, partial curve]
Cc1ccccc1-c1noc(-c2cc(C(C)C)[nH]n2)n1	–	inconclusive [inhibitor, single point]

Structure (SMILES)	activity change, negative = growth inhibition	Potency
COc1ccccc1Cc1nc2ccccc2nc1SCC(=O)N1CCCc2ccccc21	–	inconclusive [inhibitor, single point]
Cc1ccc(CNC(=O)CCC2CCCN(C(=O)c3ccc4c(c3)OCO4)C2)o1 (stereo not given)	–	inconclusive [inhibitor, single point]
CCOc1ccc(NC(=O)CSc2nnc(Cc3cccn3C)n2-c2ccc(F)cc2)cc1	–	inconclusive [inhibitor, single point]
O=C1C=CC(=Nc2ccc3c(c2)Cc2cc(F)ccc2-3)O1	–	active: 7.31 µM
CCCC(O)(CCC)C(=O)NN(C(=O)CCl)c1cccc(C)c1	–	active: 5.8 µM
Cc1ccc(NC(=S)NCCSc2ccc(Cl)cc2)c(C)c1	–	inconclusive [inhibitor, single point]
C=CCOc1cccc(NC(=O)c2ccccc2SC)c1	inconclusive: -35.8% [inhibitor]	–
COC(=O)C[C@H]1c2ccccc2S(=O)(=O)N1C(C)C	–	inactive
CCOC(=O)c1[nH]c(=O)[nH]c1CNc1ccccc1C#N	inactive: 3.68%	–
CC1(c2nnc(Cc3ccccc3)o2)CC(c2ccccc2Br)=NO1 (stereo not given)	–	inconclusive [inhibitor, single point]
CCOC(=O)c1c(NC(=S)Nc2ccc(Cl)cc2)sc2c1CCN(C)C2	–	inconclusive [inhibitor, single point]
CCOc1ccccc1N1CC(c2nc3ccccc3n2CCOc2ccccc2OC)CC1=O (stereo not given)	–	inconclusive [inhibitor, single point]
COc1ccccc1NC(=O)c1ccc(NC(=O)c2cc3c(s2)CCC3)cc1	–	active: 16.4 µM
COc1ccc(-c2cc(CNC(=O)CCl)on2)cc1	–	inconclusive [inhibitor, single point]
O=C1S/C(=C\c2ccc(N3CCOCC3)o2)C(=O)N1Cc1c(F)cccc1Cl	–	inconclusive [inhibitor, partial curve]
Cc1cc(C)c2nc(NNC(=O)c3ccc(S(=O)(=O)N4CCc5ccccc5C4)cc3)sc2c1	–	active: 4.61 µM
COc1ccc(S(=O)(=O)N2CCCC2CNC(=O)c2cccc(OC)c2)cc1 (stereo not given)	inactive: -29.1%	–
Cc1cccc(NC(=O)N2CCCC2C(=O)NCc2ccccc2)c1 (stereo not given)	–	inconclusive [inhibitor, single point]
CN(CC(=O)Nc1ccc(F)cc1)C(=O)c1cc(-c2ccco2)nc2ccccc12	–	inconclusive [inhibitor, partial curve, poor fit]
Cc1cc(O)c2c(c1)C(=O)[C@@]13Oc4c5c(c(O)c6c(O)cc(C)cc46)C(=O)C[C@H](O)[C@H]5[C@@H]1[C@@H](O)CC(=O)C3=C2O	–	inconclusive [inhibitor, single point]
COc1cccc(CNC(=O)c2ccccc2N)c1	inactive: -11.2%	–
CCOc1ccc(-c2c(C(=O)N/N=C/C3CC=CCC3)nnn2-c2nonc2N)cc1 (stereo not given)	inactive: 15.9%	–
COc1ccc(C#Cc2c[nH]c(=O)c3cncnc23)cc1OC	inactive: -28.9%	–
CC(C)(C)S(=O)(=O)c1cnc2c(-c3ccc(F)cc3)cnn2c1N	–	inconclusive [inhibitor, partial curve, poor fit]

Structure (SMILES)	activity change, negative = growth inhibition	Potency
OC(CNc1ccccc1)COc1ccc(OCC(O)CNc2ccccc2)cc1 (stereo not given)	–	active: 8.2 µM
Cc1cc(C(=O)NNC(=O)CCCOc2ccccc2)c(C)o1	inactive: 0.547%	–
Cc1ccc(-n2c(SCc3ccccc3C)nc3[nH]ncc3c2=O)cc1C	–	inconclusive [inhibitor, single point]
CCOC(=O)C1(CC2CC2)CCN(Cc2ccc(OC)cc2F)CC1	–	inconclusive [inhibitor, single point]
CC(C)n1c(N2CCN(C(=O)N3CCCCC3)CC2)nc2ccccc21	–	inconclusive [inhibitor, partial curve, poor fit]
COc1ccc(N2CCN(C(=O)CCNC(=O)c3ccc(C(C)(C)C)cc3)CC2)cc1	–	inconclusive [inhibitor, single point]
Cc1ccccc1NC(=O)CN1CCc2ccccc2C1	inactive: -24.4%	–
COc1ccc(OC)c(N(CC(=O)N2CCC(C)CC2)S(=O)(=O)c2ccc(OC)c(OC)c2)c1	–	inconclusive [inhibitor, single point]
CSCC[C@H](NC(=O)N1CCn2c1nc1ccccc12)C(=O)NC1CCCCC1	–	inconclusive [inhibitor, single point]
O=c1cc(CN2CCN(C/C=C/c3ccccc3)CC2)c2cc(O)ccc2o1	–	inconclusive [inhibitor, single point]
CCN(Cc1ccc(NC(C)=O)cc1)CC1CCCN(CCc2cccc(F)c2)C1 (stereo not given)	–	inconclusive [inhibitor, single point]
COc1cccc(NC(=O)c2cn(C)c(=O)c3cc(OC)c(OC)cc23)c1	–	active: 14.6 µM
COc1cccc(CN2C(=O)NC(C)(C3CCN(Cc4cnn(C)c4C)CC3)C2=O)c1OC (stereo not given)	inactive: 0.223%	–
Cc1ccc(C)c(NC(=O)CCN2CCN(C)CC2)c1	inactive: 1.08%	–
O=S(=O)(c1ccc(F)cc1)N1CCn2c(nc3ccccc32)C1	–	inconclusive [inhibitor, single point]
Cc1[nH]n(-c2ccccc2)c(=O)c1/C=N/N(C)c1ccccc1	–	inconclusive [inhibitor, partial curve, poor fit]
CCN(CC)S(=O)(=O)c1ccc(/C=C/C(=O)Nc2ccc(F)cc2F)cc1	–	active: 13 µM
CC1CCN(CC(=O)Nc2ccc(Br)cc2[N+](=O)[O-])CC1	–	inconclusive [inhibitor, single point]
CC(C)N1CCN(C(=O)c2ccc(OC3CCN(CCc4ccccc4)CC3)cc2)CC1	–	active: 23.1 µM
NCCSC1CC(=O)N(Cc2ccc(F)cc2)C1=O (stereo not given)	inactive: -1.17%	–
C=CCN1c2ccc(Br)cc2C(=O)CS1(=O)=O	–	inconclusive [inhibitor, single point]
Cc1cc(C(=O)COc2ccc(F)cc2Br)c(C)n1C1CC1	–	active: 10.3 µM
